Laboratory results taken from PubChem BioAssay AID588855 (National Center for Advancing Translational Sciences (NCATS), 2011).
The campaign covered roughly 410,000 compounds. About 5,000 (1.2%) were called active. Inconclusive means that the source gave no clear call. Such entries were picked first, then a sample of the others. Calls follow the shape of the dose curve; as a rule, active = well fitted inhibition curve with a large enough effect; inconclusive = small, poorly fitted or top-dose-only effect; inactive = no such curve, though single readings can be large or run the other way. A potency beside an inconclusive call is a rough fit, not a confirmed value.

Experiment: qHTS for Inhibitors of TGF-b; also: nearly all actives have a fitted effect of over 65% in size
Details: HepG2 CAGA-GFP TGF-b/SMAD3 reporter, GFP fluorescence, 18 h, TGF-beta stimulated, 500 pg/mL final; series mostly up to 46.1 µM; activity, negative = inhibition: at the top concentration
Outline: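 Read-out: total well GFP (ex488/em500-530) summed from mean per-cell fluorescence. Cells: HEPG2 CAGA-GFP, 1% FBS DMEM, 18 h at 37 degrees C with 500 pg/mL final TGF-beta. Unstimulated wells served as the full-inhibition control; stimulated DMSO wells = 0%.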
% is scaled to controls: 0 for no effect and ±100 for the full control effect; potency is read from the fitted curve at half-maximal effect; tags tell the direction and shape of the fitted curve.

For `Cc1noc(C)c1NC(=O)Nc1ccc2c(c1)C(=O)N([C@H](C)CO)C[C@H](C)[C@@H](CN(C)C(=O)NC(C)C)O2`, which Potency is on record?
The Potency was inconclusive: 11.2 µM [inhibitor, partial curve, poor fit].

With `O=C(Nc1nc(-c2ccccc2)cs1)c1ccc2c(=O)n3c(nc2c1)CCCCC3` as the compound, how does the Potency read?
Its Potency is inconclusive: 2 µM [inhibitor, full curve].

For `CC(C)Sc1nc2sc3c(c2c(=O)n1Cc1ccccc1)CCCC3`, which “activity, negative = inhibition” value is on record?
Its value is inactive: 13.4%.

For `CC(C)(C)C(=O)Nc1ccc(C(=O)N/N=C/c2ccccc2OC(=O)c2ccc(Cl)cc2Cl)cc1`, which Potency is on record?
Its Potency is inconclusive: 28.2 µM [inhibitor, single point].

For `COc1ccc(NC(=O)N(C)[C@H]2C[C@H]3c4[nH]c5ccc(-c6cccc(C)c6)cc5c4CCN3C[C@H]2[C@H](C)O)cc1`, which Potency is on record?
Its Potency is inconclusive: 35.5 µM [inhibitor, single point].

For `COc1cc(C(=O)N/N=C/c2ccccn2)cc(OC)c1OC`, which “activity, negative = inhibition” value is on record?
The value was inactive: -15.4%.

With `COc1cccc(-c2ccc(NC(=O)C3CCCN(Cc4cnn(C(C)C)c4)C3)cc2)c1` (stereo not drawn) as the compound, how does the Potency read?
The Potency was inconclusive: 12.6 µM [inhibitor, partial curve, poor fit].

Which Potency does the source give for `COc1ccc(OCC(=O)N2CCN(C(=O)c3ccc([N+](=O)[O-])cc3)CC2)cc1` here?
The Potency was inconclusive: 6.31 µM [inhibitor, single point].

With `CCOC(=O)[C@@H]1[C@H]2COc3ccc(Br)cc3[C@@H]2N2C(=O)N(c3ccc(Cl)cc3)C(=O)[C@@]12C` as the compound, how does the “activity, negative = inhibition” value read?
Its value is inactive: -2.86%.

Which Potency does the source give for `COc1cccc(NC(=O)c2ccc(NC(C)=O)cc2)c1` here?
Its Potency is inconclusive: 2.24 µM [inhibitor, partial curve].

For `Cc1ccc(CSC2=Nc3sccc3C3=NC(=O)CN23)cc1`, which “activity, negative = inhibition” value is on record?
Its value is inactive: -8.41%.

With `CC1CC(C)CN(CCCNC(=O)C2CCC(=O)N2C2CCCC2)C1` (stereo not drawn) as the compound, how does the Potency read?
The Potency was inconclusive: 3.16 µM [inhibitor, single point].

Which Potency does the source give for `COc1cc(/C=C2/C(=O)NN(c3cccc(F)c3)C2=O)ccc1OC(=O)c1ccco1` here?
Its Potency is inconclusive: 35.5 µM [inhibitor, single point].

With `CCN1CCN(C(=O)c2ccccc2NC(=O)c2ccc(Cl)cc2)CC1` as the compound, how does the Potency read?
Its Potency is inconclusive: 7.08 µM [inhibitor, partial curve, poor fit].

Which “activity, negative = inhibition” value does the source give for `Cc1ccc(-n2ncc3c(NCc4ccco4)ncnc32)cc1C` here?
Its value is inactive: 3.11%.

With `O=C(c1ccc2c(c1)N(Cc1ccccc1F)C(=O)c1ccccc1S2)N1CCOCC1` as the compound, how does the Potency read?
Its Potency is inconclusive: 35.5 µM [inhibitor, single point].

For `O=C(c1cc(-c2ccco2)on1)N1CCOCC1`, which Potency is on record?
The Potency was inconclusive: 15.8 µM [inhibitor, single point].

For `O=S(=O)(c1ccccc1)N1CCC(c2ccccc2)CC1`, which Potency is on record?
Its Potency is inconclusive: 20 µM [inhibitor, single point].

With `CCCN(CC1CC1)C(=O)COC(=O)c1oc2ccc(OCC)cc2c1C` as the compound, how does the Potency read?
Its Potency is inconclusive: 15.8 µM [inhibitor, single point].

For `O=C(CCN1C(=O)/C(=C/c2ccccc2F)SC1=S)Nc1ccccn1`, which Potency is on record?
The Potency was inconclusive: 6.31 µM [inhibitor, single point].

Which Potency does the source give for `COc1cc(Br)cc2cc(C(=O)N3CCN(c4ccccn4)CC3)c(=O)oc12` here?
Its Potency is inconclusive: 12.6 µM [inhibitor, single point].

Which “activity, negative = inhibition” value does the source give for `CCCCNC(=O)C1(C)CCN1C(=O)c1csnn1` (stereo not drawn) here?
Its value is inactive: 2.85%.

Which Potency does the source give for `COCC(=O)Nc1sc2c(c1C(=O)OC)C(C(=O)OC)CC2` (stereo not drawn) here?
The Potency was inconclusive: 12.6 µM [inhibitor, partial curve, poor fit].

For `NC1CCCCC1N=Cc1c(O)n(CCc2ccc(F)cc2)c(=O)[nH]c1=O` (stereo not drawn), which “activity, negative = inhibition” value is on record?
The value was inactive: 21.1%.

With `Cc1cc(N2CCN(c3cccc(C)c3C)CC2)n2cnnc2n1` as the compound, how does the Potency read?
The Potency was inconclusive: 35.5 µM [inhibitor, single point].

Which “activity, negative = inhibition” value does the source give for `CCOC(=O)c1cnn(-c2ccc(C(=O)Nc3ccc(OC(F)(F)F)cc3)cc2)c1N` here?
The value was inactive: 15.2%.

With `O=C(Nc1ccc(Br)cc1)Nc1cnccn1` as the compound, how does the Potency read?
Its Potency is inconclusive: 11.2 µM [inhibitor, single point].

Which “activity, negative = inhibition” value does the source give for `Cc1cc(NCCCN2CCOCC2)n2nc(C)c(-c3ccccc3)c2n1` here?
The value was inactive: 13.1%.

For `Oc1ccc(F)c2cccnc12`, which Potency is on record?
Its Potency is inconclusive: 17.8 µM [inhibitor, single point].

Which Potency does the source give for `CCN(C(=O)C12CC3CC(CC(C3)C1)C2)C1CCS(=O)(=O)C1` (stereo not drawn) here?
The Potency was inconclusive: 7.94 µM [inhibitor, partial curve, poor fit].

Which Potency does the source give for `CCOc1ccc2oc(C(=O)NNC(=O)c3ccccc3O)c(C)c2c1` here?
Its Potency is inconclusive: 35.5 µM [inhibitor, single point].

With `Cc1cccnc1C(NC(=O)C1CCN(CCOc2ccc(Cl)cc2Cl)CC1)c1ccc(Cl)cc1` (stereo not drawn) as the compound, how does the Potency read?
Its Potency is inconclusive: 5.62 µM [inhibitor, single point].

With `O=C(Oc1c(-c2ccccc2)oc2ccccc2c1=O)c1ccccc1` as the compound, how does the Potency read?
The Potency was inconclusive: 22.4 µM [inhibitor, single point].

Which Potency does the source give for `Cc1c(C(=O)Nc2ccncc2)sc2nc(-c3ccccc3)cn12` here?
Its Potency is inconclusive: 28.2 µM [inhibitor, single point].

Which “activity, negative = inhibition” value does the source give for `O=C(Nc1ncccc1O)c1ccc(NS(=O)(=O)c2ccc3[nH]c(=O)[nH]c3c2)cc1` here?
The value was inactive: -8.53%.

With `CC(=O)Nc1ccc(NC(=O)Nc2ccccc2)cc1` as the compound, how does the “activity, negative = inhibition” value read?
The value was inactive: -7.33%.

With `COc1cc(-c2nc(S(=O)(=O)c3ccc(Br)cc3)c(N3CCOCC3)o2)cc(OC)c1OC` as the compound, how does the “activity, negative = inhibition” value read?
Its value is inactive: -31.9%.

For `CCCCCCCC/C=C\CCCCCCCC(=O)NCCc1ccc(O)c(O)c1`, which Potency is on record?
The Potency was inconclusive: 35.5 µM [inhibitor, single point].

Which “activity, negative = inhibition” value does the source give for `O=C(c1cccs1)N1CCN(Cc2ccccc2)CC1` here?
Its value is inactive: 4.89%.

For `COc1ccc2c(Cl)c(C(=O)N/N=C/c3cccnc3)sc2c1`, which “activity, negative = inhibition” value is on record?
Its value is inactive: -16.2%.

With `O=C(Nn1c(C2CCCCC2)nc2ccccc2c1=O)c1ccc(Cl)c([N+](=O)[O-])c1` as the compound, how does the Potency read?
The Potency was inconclusive: 35.5 µM [inhibitor, single point].

With `CC(=O)c1c(C)[nH]c(C(=O)OCCOc2ccccc2)c1C` as the compound, how does the Potency read?
Its Potency is inconclusive: 12.6 µM [inhibitor, partial curve, poor fit].

Which Potency does the source give for `CCOC(=O)c1[nH]c2ccc(OC)cc2c1NC(=S)N1CCN(c2ccccc2)CC1` here?
Its Potency is inconclusive: 25.1 µM [inhibitor, single point].
